Experimental data as given in PubChem BioAssay AID1224863 (Southern Research Institute, 2016).
Several values for one entry are separate records, joined by “and”; a condition that tells them apart may be missing. Identical values can stand only once. Some of the results follow. Shown are side measurements of this screen, not its main read-out; they come without a call.

Assays:
[1] = compounds raising F508del-CFTR protein level – cell-based, HeLa F508del-CFTR, immunofluorescence, viability, primary screen (AID 1224863); settings: immunofluorescence total CFTR, 24 h, stronger effect = higher value; min viability: measured here: HeLa viability, alamarBlue, dose 50, library dosed in µM unless noted; viability: measured here: primary viability 25 uM, at 25 µM, library dosed in µM unless noted;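 on fold increase: total CFTR protein by anti-CFTR immunofluorescence in fixed cells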
[2] = molecular target: Cystic fibrosis transmembrane conductance regulator (Homo sapiens) (UniProt P13569); assay: as above; settings: immunofluorescence total CFTR, 24 h, stronger effect = higher value; measured here: primary screen single dose 25 uM, at 25 µM, library dosed in µM unless noted
Chain of UniProt P13569 (P13569 whole entry, looked up): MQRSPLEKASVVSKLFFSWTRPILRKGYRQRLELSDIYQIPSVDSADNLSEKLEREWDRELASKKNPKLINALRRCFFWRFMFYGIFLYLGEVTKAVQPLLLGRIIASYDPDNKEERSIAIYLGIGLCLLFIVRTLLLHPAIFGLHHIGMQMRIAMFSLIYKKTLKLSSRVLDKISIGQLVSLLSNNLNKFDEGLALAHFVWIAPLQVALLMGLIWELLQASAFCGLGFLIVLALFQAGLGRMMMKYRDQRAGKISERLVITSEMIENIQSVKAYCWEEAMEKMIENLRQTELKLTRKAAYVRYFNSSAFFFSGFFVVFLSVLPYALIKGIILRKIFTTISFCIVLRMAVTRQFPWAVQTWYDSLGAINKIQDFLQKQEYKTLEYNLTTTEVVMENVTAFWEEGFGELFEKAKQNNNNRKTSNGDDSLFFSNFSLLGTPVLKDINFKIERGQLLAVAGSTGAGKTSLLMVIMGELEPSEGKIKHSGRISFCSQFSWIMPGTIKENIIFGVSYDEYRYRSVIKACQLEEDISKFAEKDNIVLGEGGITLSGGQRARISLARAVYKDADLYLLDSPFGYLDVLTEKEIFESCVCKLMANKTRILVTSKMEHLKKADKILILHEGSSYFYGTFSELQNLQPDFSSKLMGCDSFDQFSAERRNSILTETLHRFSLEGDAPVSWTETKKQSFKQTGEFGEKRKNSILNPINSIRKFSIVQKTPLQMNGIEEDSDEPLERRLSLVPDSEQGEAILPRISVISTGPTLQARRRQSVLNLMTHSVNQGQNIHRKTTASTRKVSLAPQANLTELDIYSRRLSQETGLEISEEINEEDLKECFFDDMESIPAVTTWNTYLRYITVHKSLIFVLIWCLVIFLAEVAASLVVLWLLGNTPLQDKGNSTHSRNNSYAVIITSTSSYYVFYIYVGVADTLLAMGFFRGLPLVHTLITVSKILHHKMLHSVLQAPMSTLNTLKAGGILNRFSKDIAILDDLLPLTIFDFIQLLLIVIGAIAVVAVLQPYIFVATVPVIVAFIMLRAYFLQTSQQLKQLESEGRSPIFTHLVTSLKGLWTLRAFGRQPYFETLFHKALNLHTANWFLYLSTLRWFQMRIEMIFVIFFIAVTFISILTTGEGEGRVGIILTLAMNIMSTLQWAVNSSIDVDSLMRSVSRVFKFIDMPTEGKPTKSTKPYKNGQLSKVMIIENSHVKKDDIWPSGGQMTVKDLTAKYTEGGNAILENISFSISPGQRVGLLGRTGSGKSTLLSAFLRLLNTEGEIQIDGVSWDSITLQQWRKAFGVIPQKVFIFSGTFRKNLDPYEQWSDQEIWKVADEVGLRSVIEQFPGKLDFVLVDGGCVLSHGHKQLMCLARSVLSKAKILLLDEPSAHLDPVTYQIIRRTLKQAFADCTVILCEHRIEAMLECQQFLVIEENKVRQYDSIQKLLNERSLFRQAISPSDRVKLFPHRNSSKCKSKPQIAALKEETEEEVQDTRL

Compound | min viability [1] | viability [1] | fold increase [2]
Cc1ccc(/C=C/C(=O)NC2CC2)o1 | 86.1% [measured here: HeLa viability, alamarBlue, dose 5, library dosed in µg/mL] | 85% [measured here: primary viability 10 ug/mL, library dosed in µg/mL] | 2.57 [measured here: primary screen 10 ug/mL, library dosed in µg/mL]
CSc1ncc(Cl)c(C(=O)NCCNc2ncc(Cl)cc2Cl)n1 | 93.8% [measured here: HeLa viability, alamarBlue, dose 5, library dosed in µg/mL] | 60% [measured here: primary viability 10 ug/mL, library dosed in µg/mL] | 1.06 [measured here: primary screen 10 ug/mL, library dosed in µg/mL]
Cc1cc(C)c(S(=O)(=O)N2CCc3sccc3C2)c(C)c1 | 63.5% [measured here: HeLa viability, alamarBlue, dose 2.5, library dosed in µg/mL] | 52% [measured here: primary viability 10 ug/mL, library dosed in µg/mL] | 0.95 [measured here: primary screen 10 ug/mL, library dosed in µg/mL]
C[n+]1c2cc(N)ccc2cc2ccc(N)cc21 | 65.5% | 74% | 10
COc1ccc(-c2noc(CSc3nnc(N)s3)n2)c(OC)c1 | 51.3% [measured here: HeLa viability, alamarBlue, dose 20, library dosed in µg/mL] | 59% [measured here: primary viability 10 ug/mL, library dosed in µg/mL] | 1.03 [measured here: primary screen 10 ug/mL, library dosed in µg/mL]
O=C(c1ccccc1)C1C(=O)c2ccccc2C1=O | 71.7% [measured here: HeLa viability, alamarBlue, dose 0.63, library dosed in µg/mL] | 101% [measured here: primary viability 10 ug/mL, library dosed in µg/mL] | 1.5 [measured here: primary screen 10 ug/mL, library dosed in µg/mL]
Cc1ccc(C)c(S(=O)(=O)C2(C(=O)OCc3cn4ccccc4c3C#N)CCCC2)c1 | 58.7% [measured here: HeLa viability, alamarBlue, dose 20, library dosed in µg/mL] | 72% [measured here: primary viability 10 ug/mL, library dosed in µg/mL] | 2.23 [measured here: primary screen 10 ug/mL, library dosed in µg/mL]
CCC(C)[C@H]1O[C@]2(C=C[C@@H]1C)C[C@@H]1C[C@@H](C/C=C(\C)[C@@H](OC3C[C@H](OC)C(O[C@H]4C[C@H](OC)[C@@H](NC(C)=O)[C@H](C)O4)[C@H](C)O3)[C@@H](C)/C=C/C=C3\CO[C@@H]4[C@H](O)C(C)=C[C@@H](C(=O)O1)[C@]34O)O2 (some centres undefined) | 62.8% | 60% | 1.62
CCN(CC)CCNC(=O)c1c(C)[nH]c(/C=C2\C(=O)Nc3ccc(F)cc32)c1C |  | 67% | 1.27
O=c1[nH]c(=O)n([C@H]2C[C@H](O)C(CO)O2)cc1I (some centres undefined) |  | 77% | 1.43
Cc1c(/C=C(/C#N)c2ccc([N+](=O)[O-])cc2)cc(C#N)n1C | 69.7% [measured here: HeLa viability, alamarBlue, dose 10, library dosed in µg/mL] | 83% [measured here: primary viability 10 ug/mL, library dosed in µg/mL] | 2.15 [measured here: primary screen 10 ug/mL, library dosed in µg/mL]
Cc1ccc(/C=C/C2=Cc3c(sc(NC(=O)CN4CCOCC4)c3C#N)C(C)(C)C2)o1 | 70.1% [measured here: HeLa viability, alamarBlue, dose 20, library dosed in µg/mL] | 66% [measured here: primary viability 10 ug/mL, library dosed in µg/mL] | 1.42 [measured here: primary screen 10 ug/mL, library dosed in µg/mL]
CC1(c2cc(F)ccc2F)NC(=O)N(CC(=O)c2ccc3c(c2)OCCO3)C1=O (centres undefined) | 95.2% [measured here: HeLa viability, alamarBlue, dose 0.31, library dosed in µg/mL] | 69% [measured here: primary viability 10 ug/mL, library dosed in µg/mL] | 1.27 [measured here: primary screen 10 ug/mL, library dosed in µg/mL]
C=C[C@H]1CN2CC[C@H]1C[C@H]2[C@H](O)c1ccnc2ccc(OC)cc12 | 37.1% [measured here: HeLa viability, alamarBlue, dose 6.25, library dosed in µM] | 102% and 84% | 1.23 and 1.94
COc1cc2c(cc1/C=C(/C#N)c1nc(C)cs1)OC(C)C2 (centres undefined) | 80.9% [measured here: HeLa viability, alamarBlue, dose 0.31, library dosed in µg/mL] | 87% [measured here: primary viability 10 ug/mL, library dosed in µg/mL] | 2.44 [measured here: primary screen 10 ug/mL, library dosed in µg/mL]
CC[C@H](C)C(=O)O[C@H]1C[C@@H](C)C=C2C=C[C@H](C)[C@H](CC[C@@H]3C[C@@H](O)CC(=O)O3)[C@H]21 | 84.1% [measured here: HeLa viability, alamarBlue, dose 12.5, library dosed in µM] | 82% and 101% | 1.51 and 1.37
Cn1c(-c2c(N)n(Cc3cccnc3)c3nc(C#N)c(C#N)nc23)nc2ccccc21 | 63.7% [measured here: HeLa viability, alamarBlue, dose 10, library dosed in µg/mL] | 92% [measured here: primary viability 10 ug/mL, library dosed in µg/mL] | 4.43 [measured here: primary screen 10 ug/mL, library dosed in µg/mL]
N#Cc1ccc(CN2CCc3cc([N+](=O)[O-])ccc32)c(F)c1 | 87.6% [measured here: HeLa viability, alamarBlue, dose 0.039, library dosed in µg/mL] | 86% [measured here: primary viability 10 ug/mL, library dosed in µg/mL] | 1.53 [measured here: primary screen 10 ug/mL, library dosed in µg/mL]
CCN(CC)C(=S)SSC(=S)N(CC)CC | 69.2% | 107% and 85% and 82% | 1.42 and 1.6 and 2.01
N#C/C(=C/c1cccs1)c1nc(-c2cccs2)no1 | 79% [measured here: HeLa viability, alamarBlue, dose 0.039, library dosed in µg/mL] | 95% [measured here: primary viability 10 ug/mL, library dosed in µg/mL] | 1.55 [measured here: primary screen 10 ug/mL, library dosed in µg/mL]
CCN(CC)CCOc1ccc2c(c1)C(=O)c1cc(OCCN(CC)CC)ccc1-2 | 52.3% | 73% | 3.61
O=C(OCc1sc2ccccc2c1Cl)C1=NN(C2CCS(=O)(=O)C2)C(=O)CC1 (centres undefined) | 65.6% [measured here: HeLa viability, alamarBlue, dose 0.16, library dosed in µg/mL] | 96% [measured here: primary viability 10 ug/mL, library dosed in µg/mL] | 1.7 [measured here: primary screen 10 ug/mL, library dosed in µg/mL]
COc1cc([C@@H]2c3cc4c(cc3C(O[C@@H]3O[C@@H]5CO[C@@H](c6cccs6)OC5[C@H](O)[C@H]3O)C3COC(=O)[C@@H]32)OCO4)cc(OC)c1O (some centres undefined) |  | 79% | 1.43
CC(=O)S[C@@H]1CC2=CC(=O)CC[C@]2(C)[C@H]2CC[C@@]3(C)[C@@H](CC[C@@]34CCC(=O)O4)C12 (some centres undefined) | 61.5% [measured here: HeLa viability, alamarBlue, dose 0.09, library dosed in µM] | 99% | 1.84
C=C[C@H]1CN2CC[C@H]1C[C@@H]2[C@H](O)c1ccnc2ccc(OC)cc12 |  | 93% | 1.06
COC(=O)[C@H]1[C@H]2C[C@@H]3c4[nH]c5cc(OC)ccc5c4CCN3C[C@H]2C[C@@H](OC(=O)c2cc(OC)c(OC)c(OC)c2)[C@@H]1OC | 73.3% [measured here: HeLa viability, alamarBlue, dose 12.5, library dosed in µM] | 85% and 80% | 2.42 and 1.11
